Test [1] concerns A549-Dual. Put plainly: NF-kB reporter (SEAP) activity, viability-corrected, relative to vehicle (fold change vs vehicle); higher = more activation of STING-IRF / NF-kB immune response reporter. To be noted: 10 µM.
Test [2] has as its system A549-Dual. Put plainly: ISRE reporter (Lucia luciferase) activity, viability-corrected, relative to vehicle (fold change vs vehicle); higher = more activation of STING-IRF / NF-kB immune response reporter. The note with it: 10 µM.

Each structure is given as a SMILES string. The list shows a part of the results. Single values of this set are uncertain. Values with irradiation are relative to irradiated vehicle.
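Throughout, for NF-kB reporter (SEAP) activity, viability-corrected, relative to vehicle: viability correction based on the alamar blue assay, with concentrations leaving 10% survival or less dropped.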

Consider `C1=Cc2ccccc2Nc2ccccc21` [Iminostilbene], for which the NF-kB reporter with A549-Dual [1] (irradiation: 8 Gy/4 fr) was found to be 0.557; in the test with A549-Dual [1] (irradiation: none), 0.603. The ISRE reporter in the test on A549-Dual [2] (irradiation: 8 Gy/4 fr) was determined as 0.651; with A549-Dual [2] (irradiation: none) it was 0.612.

In the case of `CC(CCC(=O)O)C1CCC2C3C(O)CC4CC(O)CCC4(C)C3CC(O)C12C` (centres undefined) [Cholic acid], the results for the NF-kB reporter in the test with A549-Dual [1] (irradiation: 8 Gy/4 fr) and with A549-Dual [1] (irradiation: none) were 1.14 and 0.708, respectively. In addition, the ISRE reporter was 1.11 with A549-Dual [2] (irradiation: 8 Gy/4 fr) and 0.517 in the test on A549-Dual [2] (irradiation: none).

Turning to `O=C1CN(/N=C/c2ccc(-c3ccc([N+](=O)[O-])cc3)o2)C([O-])=N1.[Na+]` [Dantrolene sodium], the NF-kB reporter with A549-Dual [1] (irradiation: 8 Gy/4 fr) was 0.997; in the test with A549-Dual [1] (irradiation: none) it was 1.06. Further, the ISRE reporter was determined as 0.937 in the test with A549-Dual [2] (irradiation: 8 Gy/4 fr) and 0.854 in the test with A549-Dual [2] (irradiation: none).

With `CN(C)C1C(O)=C(C(N)=O)C(=O)C2(O)C(O)=C3C(=O)c4c(O)cccc4C(C)(O)C3CC12.Cl` (centres undefined) [Tetracycline HCl], the NF-kB reporter in the test on A549-Dual [1] (irradiation: 8 Gy/4 fr) was found to be 0.728; in the test with A549-Dual [1] (irradiation: none), 0.874. The ISRE reporter in the test on A549-Dual [2] (irradiation: 8 Gy/4 fr) amounted to 0.499; in the test with A549-Dual [2] (irradiation: none) it was 0.736.

In the case of `Cc1ccc(S(=O)(=O)O)cc1.NC1CCN(c2nc3c(cc2F)c(=O)c(C(=O)O)cn3-c2ccc(F)cc2F)C1.O` (centres undefined) [Tosufloxacin p-Toluenesulfonate Hydrate], the NF-kB reporter in the test on A549-Dual [1] (irradiation: 8 Gy/4 fr) and with A549-Dual [1] (irradiation: none) was 1 each time. In addition, the figures for the ISRE reporter in the test with A549-Dual [2] (irradiation: 8 Gy/4 fr) and in the test with A549-Dual [2] (irradiation: none) were 1.03 and 0.863, respectively.

As for `O=S(=O)([O-])Oc1ccc(C(c2ccc(OS(=O)(=O)[O-])cc2)c2ccccn2)cc1.[Na+].[Na+]` [Sodium Picosulfate], the values for the NF-kB reporter in the test on A549-Dual [1] (irradiation: 8 Gy/4 fr) and in the test on A549-Dual [1] (irradiation: none) were 0.695 and 0.744, respectively. Besides, the ISRE reporter in the test on A549-Dual [2] (irradiation: 8 Gy/4 fr) turned out to be 0.763; with A549-Dual [2] (irradiation: none), 0.755.

On to `FC(F)(F)C(Cl)Br` (centres undefined) [Halothane], for which the NF-kB reporter in the test with A549-Dual [1] (irradiation: 8 Gy/4 fr) was 1.04; in the test on A549-Dual [1] (irradiation: none), 1.36. For the same compound, the figures for the ISRE reporter in the test with A549-Dual [2] (irradiation: 8 Gy/4 fr) and in the test with A549-Dual [2] (irradiation: none) were 0.91 and 0.84, respectively.

For `O=C(O)CCCCCCCC(=O)O` [Azelaic acid], the NF-kB reporter in the test on A549-Dual [1] (irradiation: 8 Gy/4 fr) worked out at 0.984; with A549-Dual [1] (irradiation: none), 1.39. In addition, the ISRE reporter in the test on A549-Dual [2] (irradiation: 8 Gy/4 fr) amounted to 0.925; in the test on A549-Dual [2] (irradiation: none) it was 1.08.

In the case of `COc1ccc(C(=O)NCc2ccc(OCCN(C)C)cc2)cc1OC.Cl` [Itopride hydrochloride], the NF-kB reporter with A549-Dual [1] (irradiation: 8 Gy/4 fr) was found to be 0.819; in the test with A549-Dual [1] (irradiation: none) it was 1.65. Besides, the values for the ISRE reporter in the test with A549-Dual [2] (irradiation: 8 Gy/4 fr) and in the test on A549-Dual [2] (irradiation: none) were 0.979 and 1.37, respectively.

On to `CCOC(=O)C(CCc1ccccc1)NC1CCc2ccccc2N(CC(=O)O)C1=O` (centres undefined) [Benazepril], for which the NF-kB reporter in the test on A549-Dual [1] (irradiation: 8 Gy/4 fr) turned out to be 0.783; with A549-Dual [1] (irradiation: none), 0.77. Moreover, the ISRE reporter in the test with A549-Dual [2] (irradiation: 8 Gy/4 fr) was 0.731; in the test on A549-Dual [2] (irradiation: none), 0.77.

As for `Cc1ncc(COP(=O)(O)O)c(C=O)c1O` [Pyridoxal phosphate], the NF-kB reporter in the test with A549-Dual [1] (irradiation: 8 Gy/4 fr) is 0.864; with A549-Dual [1] (irradiation: none), 0.857. Further, the results for the ISRE reporter in the test with A549-Dual [2] (irradiation: 8 Gy/4 fr) and in the test on A549-Dual [2] (irradiation: none) were 0.823 and 0.77, respectively.

On to `Cc1cc(=O)[nH]c(=S)[nH]1` [Methylthiouracil], for which the NF-kB reporter with A549-Dual [1] (irradiation: 8 Gy/4 fr) was 0.777; in the test with A549-Dual [1] (irradiation: none), 1.1. Besides, the ISRE reporter in the test with A549-Dual [2] (irradiation: 8 Gy/4 fr) stood at 0.827; in the test with A549-Dual [2] (irradiation: none) it was 0.819.

For the compound `CCC/C=C1\OC(=O)C2=C1CCC=C2` [Ligustilide], the figures for the NF-kB reporter with A549-Dual [1] (irradiation: 8 Gy/4 fr) and in the test with A549-Dual [1] (irradiation: none) were 0.931 and 0.994, respectively. In addition, the figures for the ISRE reporter with A549-Dual [2] (irradiation: 8 Gy/4 fr) and in the test on A549-Dual [2] (irradiation: none) were 0.749 and 0.647, respectively.

`O=c1cc(-c2ccc(O)c(O)c2)oc2cc(O)cc(O)c12` [Luteolin]: the figures for the NF-kB reporter in the test on A549-Dual [1] (irradiation: 8 Gy/4 fr) and in the test with A549-Dual [1] (irradiation: none) were 1.1 and 0.722, respectively. In addition, the ISRE reporter turned out to be 1.06 in the test on A549-Dual [2] (irradiation: 8 Gy/4 fr) and 0.999 in the test on A549-Dual [2] (irradiation: none).

`CC1OC1P(=O)(O)O.NC(CO)(CO)CO` (centres undefined) [Fosfomycin Tromethamine]: the values for the NF-kB reporter in the test with A549-Dual [1] (irradiation: 8 Gy/4 fr) and with A549-Dual [1] (irradiation: none) were 1.21 and 0.905, respectively. Besides, the ISRE reporter was 1.04 in the test with A549-Dual [2] (irradiation: 8 Gy/4 fr) and 0.671 with A549-Dual [2] (irradiation: none).

Consider `Cc1c(OCC(F)(F)F)ccnc1CS(=O)c1nc2ccccc2[nH]1` (centres undefined) [Dexlansoprazole], for which the values for the NF-kB reporter in the test with A549-Dual [1] (irradiation: 8 Gy/4 fr) and in the test on A549-Dual [1] (irradiation: none) were 0.53 and 0.94, respectively. Besides, the ISRE reporter was determined as 0.236 with A549-Dual [2] (irradiation: 8 Gy/4 fr) and 0.374 in the test with A549-Dual [2] (irradiation: none).

Consider `Cc1cn(C2OC(CO)C(O)C2F)c(=O)[nH]c1=O` (centres undefined) [Clevudine], for which the NF-kB reporter came to 0.734 in the test on A549-Dual [1] (irradiation: 8 Gy/4 fr) and 1.03 in the test on A549-Dual [1] (irradiation: none). Further, the figures for the ISRE reporter in the test on A549-Dual [2] (irradiation: 8 Gy/4 fr) and in the test with A549-Dual [2] (irradiation: none) were 0.76 and 0.789, respectively.

On to `CC1=CCC(O)(C(C)C)CC1` (centres undefined) [Terpinen-4-ol], for which the NF-kB reporter in the test with A549-Dual [1] (irradiation: 8 Gy/4 fr) worked out at 0.472; in the test with A549-Dual [1] (irradiation: none) it was 0.45. The ISRE reporter in the test with A549-Dual [2] (irradiation: 8 Gy/4 fr) is 0.0622; with A549-Dual [2] (irradiation: none), 0.105.

With `C[N+](C)(C)CCOC(=O)CCC(=O)OCC[N+](C)(C)C.O.O.[Cl-].[Cl-]` [Succinylcholine Chloride Dihydrate], the NF-kB reporter worked out at 0.786 in the test on A549-Dual [1] (irradiation: 8 Gy/4 fr) and 1.74 in the test with A549-Dual [1] (irradiation: none). In addition, the figures for the ISRE reporter with A549-Dual [2] (irradiation: 8 Gy/4 fr) and with A549-Dual [2] (irradiation: none) were 0.655 and 0.89, respectively.

Consider `CCOC(=O)C(CCc1ccccc1)NC(C)C(=O)N1Cc2cc(OC)c(OC)cc2CC1C(=O)O.Cl` (centres undefined) [Moexipril HCl], for which the NF-kB reporter amounted to 0.88 in the test on A549-Dual [1] (irradiation: 8 Gy/4 fr) and 1.01 with A549-Dual [1] (irradiation: none). Also, the values for the ISRE reporter with A549-Dual [2] (irradiation: 8 Gy/4 fr) and in the test with A549-Dual [2] (irradiation: none) were 0.95 and 0.849, respectively.

Regarding `COCC1=C(C(=O)OC(C)OC(=O)OC(C)C)N2C(=O)C(NC(=O)/C(=N\OC)c3csc(N)n3)C2SC1` (centres undefined) [Cefpodoxime proxetil], the NF-kB reporter came out at 0.854 with A549-Dual [1] (irradiation: 8 Gy/4 fr) and 1.1 with A549-Dual [1] (irradiation: none). The ISRE reporter in the test with A549-Dual [2] (irradiation: 8 Gy/4 fr) amounted to 0.802; in the test with A549-Dual [2] (irradiation: none), 0.753.

For the compound `CCOCCn1c(C2CCN(CCc3ccc(C(C)(C)C(=O)O)cc3)CC2)nc2ccccc21` [Bilastine], the NF-kB reporter with A549-Dual [1] (irradiation: 8 Gy/4 fr) was determined as 0.454; in the test with A549-Dual [1] (irradiation: none), 0.465. In addition, the results for the ISRE reporter with A549-Dual [2] (irradiation: 8 Gy/4 fr) and with A549-Dual [2] (irradiation: none) were 0.555 and 0.487, respectively.

`CCCC(CCC)C(=O)O.CCCC(CCC)C(=O)[O-].[Na+]` [Divalproex Sodium]: the NF-kB reporter in the test on A549-Dual [1] (irradiation: 8 Gy/4 fr) worked out at 0.738; with A549-Dual [1] (irradiation: none), 0.92. For the same compound, the ISRE reporter with A549-Dual [2] (irradiation: 8 Gy/4 fr) amounted to 0.737; in the test on A549-Dual [2] (irradiation: none) it was 0.792.

As to `CN(C)CCC(c1ccc(Cl)cc1)c1ccccn1.O=C(O)/C=C\C(=O)O` (centres undefined) [Chlorpheniramine Maleate], the NF-kB reporter with A549-Dual [1] (irradiation: 8 Gy/4 fr) is 0.83; in the test on A549-Dual [1] (irradiation: none), 0.915. In addition, the ISRE reporter came to 0.938 in the test on A549-Dual [2] (irradiation: 8 Gy/4 fr) and 0.852 in the test with A549-Dual [2] (irradiation: none).

For the compound `O=C1CCCC(=O)C1C(=O)c1ccc(C(F)(F)F)cc1[N+](=O)[O-]` [Nitisinone], the NF-kB reporter with A549-Dual [1] (irradiation: 8 Gy/4 fr) came out at 1.02; in the test on A549-Dual [1] (irradiation: none), 0.869. In addition, the results for the ISRE reporter in the test with A549-Dual [2] (irradiation: 8 Gy/4 fr) and in the test with A549-Dual [2] (irradiation: none) were 0.939 and 0.523, respectively.

Regarding `COc1cc2c(cc1OC)C(Cc1cc(OC)c(OC)c(OC)c1)[N+](C)(CCCOC(=O)CC/C=C/CCC(=O)OCCC[N+]1(C)CCc3cc(OC)c(OC)cc3C1Cc1cc(OC)c(OC)c(OC)c1)CC2.[Cl-].[Cl-]` (centres undefined) [Mivacurium chloride], the results for the NF-kB reporter in the test with A549-Dual [1] (irradiation: 8 Gy/4 fr) and in the test on A549-Dual [1] (irradiation: none) were 0.587 and 1.32, respectively. In addition, the ISRE reporter amounted to 0.668 with A549-Dual [2] (irradiation: 8 Gy/4 fr) and 0.718 in the test with A549-Dual [2] (irradiation: none).

Source of the values: the supplement of paper PMC9174493.
